{"source": "PubChem BioAssay AID504845", "about": "(National Center for Advancing Translational Sciences (NCATS), 2011)", "note": "About 150 (0.038%) of roughly 390,000 compounds were called active. The shares of active, inactive and inconclusive entries below differ from those in the screen. The call rests on the fitted dose curve; in most records, active means well fitted inhibition curve with a large enough effect; inconclusive means small, poorly fitted or top-dose-only effect; inactive means no such curve, though single readings can be large or run the other way. A potency beside an inconclusive call is a rough fit, not a confirmed value. On the % scale 0 is the no-effect control and ±100 the full control effect; potency means the concentration at half of the fitted maximal effect; tags describe the fitted curve by direction and shape.", "data": [{"target": "Regulator of G-protein signaling 4 (Homo sapiens) (UniProt P49798)", "sequence (P49798 whole entry, looked up)": "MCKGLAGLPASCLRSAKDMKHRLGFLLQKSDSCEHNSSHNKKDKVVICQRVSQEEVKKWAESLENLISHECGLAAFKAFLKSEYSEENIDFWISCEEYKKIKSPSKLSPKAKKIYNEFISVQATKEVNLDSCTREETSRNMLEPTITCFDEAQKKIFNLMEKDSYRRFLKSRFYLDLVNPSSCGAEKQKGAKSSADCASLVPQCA", "assay": "Inhibitors of Regulator of G Protein Signaling (RGS) 4: qHTS; further: nearly all actives have a fitted effect of over 75% in size", "conditions": "Transcreener GDP fluorescence polarization, RGS4-accelerated GTP hydrolysis; series mostly up to 114 µM; activity change, negative = inhibition: at the top concentration", "outline": "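MLSMR compounds (23 nl, pin-transferred) preincubated 10 min at room temperature with a 500nM (2x) first reagent, then RGS4 at 900nM (2x) plus Transcreener GDP mix added; fluorescence polarization (620/688 nm) read before and after 90 min at 30 °C.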", "values": [{"smiles": "CCC(=O)Nc1ccc(NC(=S)NC(=O)/C=C/c2ccco2)cc1", "activity change, negative = inhibition": "inactive: -39.8%"}, {"smiles": "Cc1nn2cc(-c3ncc(C(F)(F)F)cc3Cl)cnc2c1Br", "Potency": "inconclusive: 39.8 µM [inhibitor, full curve, poor fit]"}, {"smiles": "O=C(Nc1nccs1)c1cc(-c2ccco2)nc2ccccc12", "activity change, negative = inhibition": "inactive: -37.2%"}, {"smiles": "COC(=O)C(F)(Sc1c(C)n(C)n(-c2ccccc2)c1=O)C(F)(F)F", "note": "(configuration not stated)", "activity change, negative = inhibition": "inactive: 10.2%"}, {"smiles": "Cc1nn(C)cc1CNC(=O)c1cccc(F)c1", "Potency": "inconclusive: 70.8 µM [inhibitor, partial curve, poor fit]"}, {"smiles": "CCN(Cc1ccncc1)Cc1c(O)ccc2cc(Br)ccc12", "Potency": "inconclusive: 56.2 µM [inhibitor, partial curve, poor fit]"}, {"smiles": "Cc1nc(N2CCCC2)c2c(C(=O)N3CCN(c4cc(Cl)ccc4C)CC3)c(C)oc2n1", "activity change, negative = inhibition": "inactive: 9.6%"}, {"smiles": "COc1ccc(/C=N/NC(=O)C[n+]2ccccc2)c(OC)c1OC", "activity change, negative = inhibition": "inactive: -3.23%"}, {"smiles": "O=C(NC(NC(=S)Nc1ccccc1C(=O)O)C(Cl)(Cl)Cl)c1ccccc1", "note": "(configuration not stated)", "Potency": "inconclusive: 112 µM [inhibitor, partial curve, poor fit]"}, {"smiles": "COc1ccc(NC(=O)CN(C)CC(=O)Nc2sc3c(c2C(N)=O)CCC3)cc1", "Potency": "inconclusive: 56.2 µM [inhibitor, partial curve, poor fit]"}, {"smiles": "O=C(O/N=C(/c1ccccc1)c1ccncc1)c1ccccc1[N+](=O)[O-]", "Potency": "inconclusive: 100 µM [inhibitor, single point]"}, {"smiles": "O=C(CNCc1ccccn1)Nc1cc(S(=O)(=O)N2CCCCC2)ccc1Cl", "activity change, negative = inhibition": "inactive: -27.9%"}, {"smiles": "O=S(=O)(NC1c2cccc3cccc(c23)C1N1CCNCC1)c1ccccc1", "note": "(configuration not stated)", "activity change, negative = inhibition": "inactive: -15.6%"}, {"smiles": "CC1CCN(CCCCOc2cccc(Br)c2)CC1", "Potency": "inconclusive: 89.1 µM [inhibitor, partial curve, poor fit]"}, {"smiles": "O=C(CN1CCCCC1)NNC(=O)c1cccc(Br)c1", "activity change, negative = inhibition": "inactive: -17%"}, {"smiles": "N#Cc1c(C#N)c(-c2ccccc2)n(-c2ccccc2)c1N", "activity change, negative = inhibition": "inactive: -5.63%"}, {"smiles": "CCOc1cccc(C2c3[nH]c4ccccc4c3CCN2C(=O)CSc2ccccc2)c1", "note": "(configuration not stated)", "activity change, negative = inhibition": "inactive: 2.87%"}, {"smiles": "CCOC(=O)CNC(=O)CSc1nc(-c2cccc(C)c2)ns1", "Potency": "inconclusive: 79.4 µM [inhibitor, partial curve, poor fit]"}, {"smiles": "CNc1cc(NS(=O)(=O)c2ccc(N)cc2)nc(NC)n1", "Potency": "inconclusive: 9.47 µM [inhibitor, partial curve]"}, {"smiles": "O=C(CN1C(=O)c2ccccc2S1(=O)=O)Nc1ccccc1", "activity change, negative = inhibition": "inactive: -10.2%"}, {"smiles": "CCCCn1c(NCCC)nc2c1c(=O)[nH]c(=O)n2C", "activity change, negative = inhibition": "inactive: 5.8%"}, {"smiles": "CCc1cc(C(=O)N(C)CC(=O)Nc2c(Cl)cccc2Cl)sc1C", "activity change, negative = inhibition": "inactive: 12.5%"}, {"smiles": "COc1ccc(NS(=O)(=O)c2ccc(NC(=O)c3ccccc3)cc2)nn1", "Potency": "inconclusive: 50.1 µM [inhibitor, partial curve, poor fit]"}, {"smiles": "COc1ccc(S(=O)(=O)Nc2cccc(-c3ccc(N4CCC(C)CC4)nn3)c2)c(OC)c1", "activity change, negative = inhibition": "inactive: -19.1%"}, {"smiles": "CCN1C(=O)/C(=C2\\SC(=S)N(NC(=O)c3ccccc3O)C2=O)c2ccccc21", "Potency": "inconclusive: 17.8 µM [inhibitor, full curve, poor fit]"}, {"smiles": "N#Cc1nc(-c2ccc(OCc3ccccc3Cl)cc2)oc1N1CCCCCC1", "activity change, negative = inhibition": "inactive: 1.4%"}, {"smiles": "COc1ccc(N2CCN(C(=O)c3cc(=O)c4cc(C)ccc4o3)CC2)cc1", "activity change, negative = inhibition": "inactive: 7.93%"}, {"smiles": "Cc1cc(C2=NNC(=Nc3ccc(S(=O)(=O)N4CCOCC4)cc3)SC2)c(C)n1C", "Potency": "inconclusive: 56.2 µM [inhibitor, partial curve, poor fit]"}, {"smiles": "COc1cc(/C=N/NC(=O)c2cccc([N+](=O)[O-])c2)ccc1OC(=O)c1ccco1", "Potency": "inconclusive: 50.1 µM [inhibitor, partial curve, poor fit]"}, {"smiles": "COc1ccc(C)cc1NC(=O)CSc1nnc(COc2ccc(Cl)cc2)n1Cc1ccco1", "activity change, negative = inhibition": "inactive: -19.9%"}, {"smiles": "O=C(NC(=S)Nc1ccc2c(c1)OCCO2)c1ccccc1", "Potency": "inconclusive: 35.5 µM [inhibitor, partial curve, poor fit]"}, {"smiles": "Cc1ccc(/C=C2/NC(=O)N(Cc3ccccc3F)C2=O)o1", "Potency": "inconclusive: 28.2 µM [inhibitor, full curve, poor fit]"}, {"smiles": "Clc1cccc(Cl)c1CO/N=C/c1c(-c2ccccc2)nc2n1CCS2", "Potency": "inconclusive: 100 µM [inhibitor, single point]"}, {"smiles": "CSc1ccccc1C(=O)Nc1ccccc1C(=O)NC(C)C", "Potency": "inconclusive: 17.8 µM [inhibitor, full curve, poor fit]"}, {"smiles": "Cc1ccc(-n2cccc2C(=S)N=P(N(C)C)(N(C)C)N(C)C)cc1", "Potency": "inconclusive: 79.4 µM [inhibitor, partial curve, poor fit]"}, {"smiles": "CC(C)(C)C(=O)O/N=C(\\N)c1c(Cl)cccc1Cl", "activity change, negative = inhibition": "inactive: 0.0964%"}, {"smiles": "COc1ccc(OC)c(NC(=O)c2nc(-c3ccccc3)oc2C)c1", "activity change, negative = inhibition": "inactive: 7.59% [at 56.9 µM]"}, {"smiles": "O=C(Oc1c(-c2ccccc2)c(=O)n2c3c(cccc13)CC2)c1ccc(Cl)cc1", "activity change, negative = inhibition": "inactive: 8.88%"}, {"smiles": "CC(=O)Nc1ccc(N=C(C2=C(O)c3ccccc3C2=O)c2ccccc2)cc1", "Potency": "inconclusive: 79.4 µM [inhibitor, partial curve, poor fit]"}, {"smiles": "CN1CCc2c(sc3c2C(=O)NC(c2ccccc2)N3)C1", "note": "(configuration not stated)", "Potency": "inconclusive: 39.8 µM [inhibitor, partial curve, poor fit]"}, {"smiles": "CCCS(=O)(=O)Nc1c(C(=O)O)[nH]c2ccccc12", "Potency": "inconclusive: 70.8 µM [inhibitor, single point]"}, {"smiles": "Cc1nc2ccc(NC(=O)Cc3cccs3)cc2s1", "activity change, negative = inhibition": "inactive: -12.5%"}, {"smiles": "CCOC1=NN(c2ncc(C(F)(F)F)cc2Cl)C(=O)C1", "Potency": "inconclusive: 79.4 µM [inhibitor, partial curve, poor fit]"}, {"smiles": "Nc1c(C(=O)Nc2nc3ccccc3s2)sc2nc(-c3cccs3)ccc12", "Potency": "inconclusive: 100 µM [inhibitor, single point]"}, {"smiles": "Cc1ccc(C(=O)N2CCN(S(=O)(=O)c3ccccc3)CC2)cc1", "Potency": "inconclusive: 50.1 µM [inhibitor, partial curve, poor fit]"}, {"smiles": "Cc1cccc(/C=N/NC(=O)NC23CC4CC(CC(C4)C2)C3)n1", "activity change, negative = inhibition": "inactive: 2.99%"}, {"smiles": "N#CC1c2ccccc2C=CN1C(=O)N(c1ccccc1)c1ccccc1", "note": "(configuration not stated)", "Potency": "inconclusive: 50.1 µM [inhibitor, partial curve, poor fit]"}]}]}
